# Reference: PubChem BioAssay AID504706 (National Center for Advancing Translational Sciences (NCATS), 2011)
# The whole screen tested about 320,000 compounds, of which about 200 (0.062%) were called active. Inconclusive results, whose numbers are uncertain, are shown with a selection of clear calls. Calls come from the whole dose curve; as a rule, active = well fitted activation curve with a large enough effect; inconclusive = small, poorly fitted or top-dose-only effect; inactive = no such curve, though single readings can be large or run the other way. No potency is given beside an inconclusive call; the fits are too rough.
# Assay: qHTS assay for re-activators of p53 using a Luc reporter; note: nearly all actives have a fitted effect of over 45% in size
# Conditions: H1299 p53-A138V BP100-luciferase reporter, luminescence, 24 h; series mostly up to 92.2 µM
# How it was run: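 H1299 (p53-null), stable ts p53-A138V + BP100-Luc; 1000 cells/well, Opti-MEM/10% FBS; cpd 4 pt, 1:5; 24 h, 37 deg C, 5% CO2; detection reagent 10 min RT; luminescence.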
# Potency is the fitted concentration of half-maximal effect; tags give direction and shape of the fitted curve.
row,SMILES,Potency
1,Clc1ccc(OCCCN2CCCCC2)c(Br)c1,"inconclusive [activator, partial curve, poor fit]"
2,Cc1cc(=O)c2ccccc2n1Cc1ccccc1,inactive
3,CCN(CC)c1ccc2cc(-c3nnc(-c4ccccc4)o3)c(=O)oc2c1,"inconclusive [activator, partial curve, poor fit]"
4,Cc1ccccc1CS(=O)(=O)Cc1ccc(C(=O)NC2CCCCC2)o1,inactive
5,CCOc1ccc(C(=O)c2nc3c(n2O)CCCC3)cc1,"inconclusive [activator, partial curve, poor fit]"
6,CCCN(CCC)c1ccc(/C=C/c2ccc3cc(OCC)ccc3n2)cc1,"inconclusive [activator, full curve, poor fit]"
7,Cc1cccc(N=C2NN=C(c3c[nH]c4ccccc34)CS2)c1,"inconclusive [activator, partial curve, poor fit]"
8,COC(=O)c1c(NC(=O)c2ccoc2C)sc2c1CCC2,"inconclusive [activator, single point]"
9,O=C(Nc1ccccc1F)NC1CCCCCCC1,"inconclusive [activator, full curve, poor fit]"
10,BrC(=C\c1ccccc1)/C=N/N1CCN(c2ccccc2)CC1,"inconclusive [activator, single point]"
11,O=C(CSc1nc2ccccc2[nH]1)c1cccs1,"inconclusive [activator, partial curve, poor fit]"
12,O=C(Cn1nnc(-c2ccc3c(c2)OCO3)n1)NCc1ccco1,"inconclusive [activator, partial curve, poor fit]"
13,O=C(CCNc1ccc(F)cc1)c1ccco1,"inconclusive [activator, single point]"
14,N#CCC(=O)Nc1ccc(C(=O)OCC(=O)c2c[nH]c3ccccc23)cc1,"inconclusive [activator, partial curve, poor fit]"
15,CN1C(=O)S/C(=C/c2cccnc2)C1=O,"inconclusive [activator, single point]"
16,Cc1cc(N2CCN(C(=O)Nc3ccc(F)cc3F)CC2)c2ccccc2n1,inactive
17,CC(=O)Nc1ccccc1OCC(=O)c1cc(C)n(Cc2cccs2)c1C,"inconclusive [activator, partial curve, poor fit]"
18,CCOC(=O)c1cnn(-c2ncnc3c2oc2ccccc23)c1N,"inconclusive [activator, partial curve, poor fit]"
19,CSc1ccccc1OCc1cc(C(=O)NC(C)CCn2cccn2)no1 (stereo not given),inactive
20,O=C(COc1nc2ccccc2nc1N1CCOCC1)Nc1ccc(S(=O)(=O)N2CCCC2)cc1,inactive
21,Cc1cccc(N=C2NN=C(c3ccc4c(c3)OCCO4)CS2)c1,"inconclusive [activator, partial curve, poor fit]"
22,O=C(CN1C(=O)C2CC=CCC2C1=O)Nc1ccc(F)cc1F (stereo not given),inactive
23,S=C(Nc1ccccc1)N1CCc2ccccc21,inactive

row,SMILES,Potency
1,Cc1ccc(NC(=O)/C(CN(C)C)=N\O)cc1,"inconclusive [activator, single point]"
2,CC(=O)CSc1nc2cc3c(cc2cc1C#N)OCCO3,"inconclusive [activator, full curve, poor fit]"
3,Cc1cc(C)cc(NC(=O)NC2CCCCCCC2)c1,"inconclusive [activator, partial curve, poor fit]"
4,CC(C)(C)c1ccc(C(=O)NC(=O)COC(=O)CCS(=O)(=O)c2ccccc2)cc1,inactive
5,Cc1ccc(N2CSC3=C(C#N)C(c4cccs4)CC(=O)N3C2)cc1 (stereo not given),"inconclusive [activator, partial curve, poor fit]"
6,CCOC(=O)c1ccc(NC(=S)Nc2ccccn2)cc1,"inconclusive [activator, partial curve, poor fit]"
7,NS(=O)(=O)c1cccc(NC(=O)COC(=O)/C=C/c2nc3ccccc3s2)c1,"inconclusive [activator, single point]"
8,Cc1cc(-n2c(C)cc(C(=O)CSc3nnnn3-c3ccccc3)c2C)no1,inactive
9,Cc1c(C(=O)OCC(C)(C)CN(C)C)oc2ccccc12,"inconclusive [activator, partial curve, poor fit]"
10,COCCn1c(C)cc(C(=O)CSc2nc3ccccc3o2)c1C,"inconclusive [activator, partial curve, poor fit]"
11,Cc1ccc2nc(NC(=O)CCNS(=O)(=O)c3ccc(Br)s3)sc2c1,"inconclusive [activator, single point]"
12,CC(NC(=O)c1cccc(S(=O)(=O)N2CCc3ccccc32)c1)c1ccco1 (stereo not given),inactive
13,NC1=NS(=O)(=O)NC1c1cccc(Cl)c1 (stereo not given),inactive
14,Cn1c(-c2ccc(F)cc2)cnc1SCC(=O)Nc1ccccc1N1CCOCC1,"inconclusive [activator, full curve, poor fit]"
15,NS(=O)(=O)c1ccc(CNC(=O)CCSCCC(=O)NCc2ccc(S(N)(=O)=O)cc2)cc1,inactive
16,O=C(Nc1cccc([N+](=O)[O-])c1)c1ccn[nH]1,"inconclusive [activator, partial curve, poor fit]"
17,Cc1cccc(NC(=O)CSc2ccc(-c3ccco3)nn2)c1,inactive
18,O=[n+]1cc(-c2ccc(Cl)cc2)n([O-])c2c1CCCCC2,"inconclusive [activator, single point]"
19,CCCCN(C(=O)c1cccc(S(=O)(=O)N2CCOCC2)c1)c1c(N)n(CCC)c(=O)[nH]c1=O,inactive
20,COc1ccc(OCC(=O)N2c3ccc(C)cc3C3CN(C)CCC32)cc1 (stereo not given),inactive
21,Cc1nc2nc(-c3ccc(Cl)cc3)[nH]n2c(=O)c1C,"inconclusive [activator, partial curve, poor fit]"
22,CO/N=C/C(C#N)=C/c1ccc(OC)cc1,"inconclusive [activator, partial curve, poor fit]"
